Test results taken from the supplement of paper PMC10441789.
The list shows a part of the results. Antibody binding of pooled human sera (four to six donors per pool; dilution not stated) to peptides of the Trypanosoma cruzi antigen TSSA on microarrays. Quantile-normalised fluorescence in arbitrary units, mean of duplicate arrays; higher = more binding. No active / inactive call. The uninfected pools are read here as the healthy donors of the same country. The strongest signals lie near the top of the scale (about 60,000).

test system: pooled sera of uninfected people, Colombia; assay: antibody binding signal (normalised fluorescence) (arbitrary fluorescence units); higher = stronger serum antibody binding to peptide
Experimental: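 Microarray of 15-residue peptides over residues 30-55 of Trypanosoma cruzi TSSAII, each with 1 to 10 substitutions at naturally variable positions, probed with one serum pool per country.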

Row | Sequence | antibody binding signal
1 | GTENKPAAGGAPSPS | 257
2 | KKTAAGETPSPPGAS | 282
3 | PSGKENKPAAGETPS | 660
4 | TDNKAAAGGTPSPSG | 552
5 | KPAAGGAPSPSGASS | 96.7
6 | NKTATGGTPSQPGAS | 428
7 | NKTATGEAPSQSGAS | 268
8 | ENKPATGGAPSQPGA | 236
9 | GKDNKPAAGGTPSPS | 242
10 | GTEKKAAAGGTPSPP | 178
11 | PSGKDNKAAAGGTPS | 126
12 | TEKKPATGETPSPPG | 158
13 | GKDNKAAAGGTPSQP | 156
14 | TEKKAATGETPSPSG | 692
15 | KENKTAAGEAPSPSG | 157
16 | KPAAGEAPSPPGASS | 94
17 | TEKKPATGETPSQPG | 252
18 | GTDNKTAAGEAPSPS | 158
19 | GTEKKPATGETPSPP | 361
20 | GTENKTAAGETPSQS | 263

Row | Sequence | antibody binding signal
21 | SGKDKKTATGEAPSP | 222
22 | SGKEKKAATGGAPSP | 357
23 | KAAAGEAPSPPGASS | 121
24 | TISTPPSGTDKKAAT | 193
25 | DKKTAAGGAPSQSGA | 171
26 | PPSGKENKPAAGGTP | 556
27 | SSTPPSGTDKKTATG | 192
28 | GTDNKTATGGAPSQS | 182
29 | GTDNKAATGETPSPP | 107
30 | KTATGGTPSPSGASS | 226
31 | TDKKTAAGGTPSQPG | 391
32 | ISTPPSGTDNKPATG | 272
33 | ENKAAAGETPSPPGA | 86.4
34 | PSGTENKPAAGGTPS | 948
35 | SGTENKPAAGEAPSQ | 128
36 | STPPSGTDNKAAAGG | 175
37 | DNKTATGETPSPPGA | 155
38 | DKKTATGEAPSPSGA | 94.2
39 | TPPSGKDKKTAAGET | 607
40 | EKKPATGGAPSQPGA | 266
